Residue numbers refer to the chain shown, from its start. Results are given in words; binding and its absence hold for the method and conditions named. Binding seen in cells or lysates may run through a third protein. Some results given as binding are weak or reduced against the parent protein; the word gives no strength. Sequences can lack the tags named with a protein.

Protein sequences, listed by entry. Tags and fused reporters are not part of them. Lines headed by an entry give the natural chain unless they say otherwise; changes in a name come on top. Residues count along the entry.
UniProt Q00987: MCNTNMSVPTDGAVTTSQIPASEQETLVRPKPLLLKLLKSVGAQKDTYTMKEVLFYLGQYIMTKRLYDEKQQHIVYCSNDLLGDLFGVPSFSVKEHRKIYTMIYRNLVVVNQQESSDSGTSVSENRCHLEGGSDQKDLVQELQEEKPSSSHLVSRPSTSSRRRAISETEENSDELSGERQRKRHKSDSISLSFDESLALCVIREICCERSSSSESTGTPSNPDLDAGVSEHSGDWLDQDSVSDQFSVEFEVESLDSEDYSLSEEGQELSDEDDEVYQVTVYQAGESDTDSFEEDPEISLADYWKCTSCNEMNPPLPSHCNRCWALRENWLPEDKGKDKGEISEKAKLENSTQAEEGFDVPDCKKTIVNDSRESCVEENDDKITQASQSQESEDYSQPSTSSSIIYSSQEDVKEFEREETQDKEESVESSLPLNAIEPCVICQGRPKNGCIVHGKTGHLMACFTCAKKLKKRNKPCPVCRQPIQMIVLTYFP
GST-MDM2 (384–491): residues 384-491 of Q00987

One experiment deals with GST-MDM2 (384–491) (UniProt Q00987). In words: pull-down; GST-MDM2 (384–491) immobilized; FLAG-tagged proteins in vitro translated and incubated with it; detection by western blotting; only the target purified.
The target of experiment [1] is MDM2 (coexpressed in H1299 cells) (UniProt Q00987). In words: co-IP; H1299 cells transfected with FLAG-ATF3wt or FLAG-ATF3VPI in the presence/absence of MDM2; co-IP with the MDM2 antibody, western blotting.

B1: FLAG-tagged ATF3(1–101) (domain or fragment, UniProt P18847 1-101)
chain: MMLQHPGQVSASEVSASAIVPCLSPPGSLVFEDFANLTPFVKEELRFAIQNKHLCHRMSSALESVTVSDRPLGVSITKAEVAPEEDERKKRRRERNKIAAA
Regarding B1, the binding result with GST-MDM2 (384–491) is given as “binds”.

B2: FLAG-tagged JDP2 (protein, UniProt Q8WYK2 1-163)
chain: MMPGQIPDPSVTTGSLPGLGPLTGLPSSALTVEELKYADIRNLGAMIAPLHFLEVKLGKRPQPVKSELDEEEERRKRRREKNKVAAARCRNKKKERTEFLQRESERLELMNAELKTQIEELKQERQQLILMLNRHRPTCIVRTDSVKTPESEGNPLLEQLEKK
B2: the binding result in the experiment with GST-MDM2 (384–491) is “no binding”.

B3: FLAG-ATF3wt (wild-type activating transcription factor 3) (protein, UniProt P18847 1-181)
chain: MMLQHPGQVSASEVSASAIVPCLSPPGSLVFEDFANLTPFVKEELRFAIQNKHLCHRMSSALESVTVSDRPLGVSITKAEVAPEEDERKKRRRERNKIAAAKCRNKKKEKTECLQKESEKLESVNAELKAQIEELKNEKQHLIYMLNLHRPTCIVRAQNGRTPEDERNLFIQQIKEGTLQS
B3: in experiment [1], the binding result is listed as “binds”.

B4: FLAG-tagged ATF3 5KR (protein, UniProt P18847 1-181)
chain: B3 chain with K102R, K106R, K107R, K108R, K110R
Consider B4, for which the binding result with GST-MDM2 (384–491) was “binds”.
